From PubChem BioAssay AID2147 (National Center for Advancing Translational Sciences (NCATS), 2009)
The whole screen tested about 230,000 compounds, of which about 3,600 (1.6%) were called active. The inconclusive results got no clear call from the source; some entries with a clear call stand among them for comparison. Calls follow the shape of the dose curve; as a rule, active = well fitted inhibition curve with a large enough effect (not every such curve was filed as active); inconclusive = small, poorly fitted or top-dose-only effect, or another doubt; inactive = no such curve, though single readings can be large or run the other way. Where the call is inconclusive, the potency comes from a doubtful curve fit.

Target: Lysine-specific demethylase 4E (Homo sapiens) (UniProt B2RXH2)
UniProt B2RXH2, sequence (B2RXH2 whole entry, looked up, the tested form may be a part): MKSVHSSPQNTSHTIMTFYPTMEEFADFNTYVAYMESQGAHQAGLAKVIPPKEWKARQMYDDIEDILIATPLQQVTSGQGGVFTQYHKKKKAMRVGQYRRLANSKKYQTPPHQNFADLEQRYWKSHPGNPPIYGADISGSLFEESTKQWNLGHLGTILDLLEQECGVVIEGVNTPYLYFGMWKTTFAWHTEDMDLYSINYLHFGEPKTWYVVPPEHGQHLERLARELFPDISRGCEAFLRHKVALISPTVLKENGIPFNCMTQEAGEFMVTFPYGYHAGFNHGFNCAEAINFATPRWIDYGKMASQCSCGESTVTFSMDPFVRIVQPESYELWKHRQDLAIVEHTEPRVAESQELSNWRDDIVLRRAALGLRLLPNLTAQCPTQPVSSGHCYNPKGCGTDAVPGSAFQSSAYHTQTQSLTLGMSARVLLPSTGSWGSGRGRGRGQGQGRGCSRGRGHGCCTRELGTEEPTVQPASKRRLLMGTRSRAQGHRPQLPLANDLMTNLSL
Experiment: qHTS Assay for Inhibitors of Human Jumonji Domain Containing 2E (JMJD2E)
Details: JMJD2E catalytic domain, FDH-coupled NADH fluorescence (FDH is formaldehyde dehydrogenase); series mostly up to 57.1 µM; activity change, negative = inhibition: at the top concentration
Description: Assay Provider: Structural Genomics Consortium [SGC] Screening Center PI: Austin, C.P. Screening Center: NIH Chemical Genomics Center [NCGC] The fine interplay among methylation states of several lysine residues on the tails of histone proteins is a major determinant of the transcriptional state of the associated DNA coding regions and is commonly referred to as the histone code. Histone lysine demethylases catalyze the removal of methyl groups from methylated lysine sidechains on histones H3 and H4, thus antagonizing the reactions catalyzed by histone lysine methyltransferases. […] In search for novel inhibitors of JMJD2E demethylase, a member of the largest set of histone demethylases belonging to the Fe(II) and 2-oxoglutarate oxygenase (2OG) superfamily, we performed a quantitative high-throughput screen (Inglese 2006) by using an assay which utilizes a trimethylated peptide substrate corresponding to a fragment of histone H3 (sequence ARKme3STGGK) with detection of the formaldehyde co-product in real time by a formaldehyde dehydrogenase (FDH) coupled reaction. FDH catalyzes oxidation of formaldehyde to formic acid with the concomitant reduction of the non-fluorescent beta-nicotinamide adenine dinucleotide hydrate (NAD+) cofactor to the fluorescent NADH co-product. References: Inglese, J., Auld, D., Jadhav, A., Johnson, R., Simeonov, A., Yasgar, A., Zheng, W. and Austin, C. Proc Natl Acad Sci USA 2006, 103, 11473-11478. N. R. Rose, S. S. Ng, J. Mecinovic, B. M. Lienard, S. H. Bello, Z. Sun, M. A. McDonough, U. Oppermann and C. J. Schofield, J Med Chem, 2008, 51, 7053-7056. Sakurai, M., Rose, N., Schultz, L., Quinn, A., Jadhav, A., Ng, S., Oppermann, U., Schofield, C.J. and Simeonov, A. Mol BioSystems 2009, in press. S. Michael, D. Auld, C. Klumpp, A. Jadhav, W. Zheng, N. Thorne, C. Austin, J. Inglese and A. Simeonov, Assay Drug Dev Technol, 2008, 6, 637-657.
Reagents and Controls: Ferrous ammonium sulfate, (+)-sodium L-ascorbate, beta-nicotinamide adenine dinucleotide hydrate (NAD+), Tween-20, formaldehyde dehydrogenase from P. putida (FDH), and disodium 2-oxoglutarate were from Sigma (St. Louis, MO). Black solid-bottom 384-well or 1,536-well assay plates were from Greiner Bio-One (Monroe, NC). Enzyme was supplied by Prof. Udo Oppermann, SGC-Oxford. The catalytic domain of human JMJD2E (residues 1-337) was produced as an N-terminally His6-tagged protein in E. coli, and purified by Ni-affinity chromatography and size-exclusion chromatography, and stored in HEPES 50 mM/ NaCl 500 mM pH 7.5, as reported in Rose 2008. The trimethylated histone peptide substrate ARK(me3)STGGK was synthesized and HPLC-purified by the Tufts University Core Facility (Boston, MA). Substrate solution (Sakurai 2009) contained 50 uM ARK(me3)STGGK, 0.00025 U/uL FDH, 50 uM 2-oxoglutarate, 250 uM NAD+, 1 mM ascorbate, and 10 uM ferrous ammonium sulfate. Controls and plate map: Buffer (150 mM HEPES pH 7.5 containing 0.01% Tween-20) in columns 3 and 4 as negative control (no enzyme) and 100 nM JMJD2E final concentration in columns 1,2, and 5-48. Assay Steps: Enzyme and buffer solutions (3 uL) were dispensed into a 1,536-well Greiner black solid-bottom assay plate. The library compounds (23 nL) were transferred using a Kalypsys pintool equipped with 1,536-pin array. The plate was incubated at room temperature (15 min), and then a 1 uL aliquot of substrate solution was added to initiate the reaction. The plate was transferred to ViewLux imager where an initial reading using standard UV optics (Ex 340 nm, Em 450 nm) was obtained. The plate was then removed from the reader, incubated for 30 minutes at room temperature, and returned to the reader for a second fluorescence reading. A fully automated robotic screening system (Kalypsys Inc, San diego, CA) was used to perform the above steps as described previously (Michael 2008). […]
Also: nearly all actives have a fitted effect of over 50% in size.
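For activity change, negative = inhibition in this document: 0% = wells with enzyme and -100% = buffer wells without enzyme.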
Potency is read from the fitted curve at half-maximal effect; tags tell the direction and shape of the fitted curve.

| Structure (SMILES) | activity change, negative = inhibition | Potency |
| --- | --- | --- |
| S=C(c1nc2ccccc2[nH]1)N1CCOCC1 | inactive: -7.04% | – |
| COc1ccccc1CNc1cc(-c2ccccc2)ccc1OC | – | inconclusive: 31.6 µM [inhibitor, partial curve] |
| O=c1cc(N2CCCCC2)c(-c2ccccc2)nn1Cc1cccc(Cl)c1 | inactive: 5.22% | – |
| O=C(Nc1ccc(OCC(F)(F)C(F)F)cc1)c1ccncc1 | inactive: -29.3% | – |
| Cc1n[nH]c(C)c1SCC(=O)Nc1ccc(F)cc1 | inactive: 12.5% | – |
| CCOC(=O)c1cc2c(=O)[nH]ccc2nc1C | – | inconclusive: 28.2 µM [inhibitor, partial curve] |
| CCOC(=O)C(O)C1CCc2c([nH]c3ccc(C)cc23)C1=O (stereo not drawn) | – | inconclusive: 28.2 µM [inhibitor, partial curve] |
| O=S(=O)(c1ccccc1)N1CC=C(c2ccccc2)CC1 | inactive: -6.31% | – |
| Cc1cc2oc(=O)cc(CN3CCCc4ccccc43)c2cc1C | – | inconclusive: 22.4 µM [inhibitor, single point] |
| COc1ccc(Oc2c(O)c3ccccc3n(C)c2=O)cc1 | – | inconclusive: 39.8 µM [inhibitor, single point] |
| O=C(O)c1ccc(N2CC3CC(C2)c2cccc(=O)n2C3)c(NC(=S)Nc2ccc(Br)cc2)c1 (stereo not drawn) | inactive: -11.1% | – |
| COc1cc(CN(C)Cc2nc3cc(C(F)(F)F)ccc3c(=O)[nH]2)ccc1OC(F)F | – | inconclusive: 39.8 µM [inhibitor, single point] |
| NS(=O)(=O)c1ccc(C(=O)Nc2ccc(-c3nc4cccnc4s3)cc2)cc1 | – | inconclusive: 28.2 µM [inhibitor, partial curve] |
| COc1ccc(Nc2nc(C)cc(C)c2C#N)cc1 | – | inconclusive: 35.5 µM [inhibitor, single point] |
| CC1CC(C)CN(C(=O)c2ccc3c(=O)n(Cc4ccc5c(c4)OCO5)c(=S)[nH]c3c2)C1 (stereo not drawn) | inactive: 0.527% | – |
| COC(=O)c1ccc(/C=N/Nc2nc(C)c(C)s2)cc1 | – | inconclusive: 35.5 µM [inhibitor, partial curve] |
| Cc1cc(C)c(OCCCCN(C)C)c(Br)c1 | – | inconclusive: 28.2 µM [inhibitor, single point] |
| CC1CCc2c(sc3nc(CN4CCOCC4)nc(NS(=O)(=O)c4cccc([N+](=O)[O-])c4)c23)C1 (stereo not drawn) | inactive: -4.7% | – |
| COc1ccc2c(c1)O[C@H](c1ccc3c(c1)OCO3)[C@@H](OC(=O)NS(=O)(=O)c1ccc(F)cc1)C2=O | inactive: 4.26% | – |
| CCOC(=O)C1(Cc2ccccc2C)CCCN(S(=O)(=O)c2cccnc2)C1 (stereo not drawn) | inactive: 3.1% | – |
| CN(C)/C=N/c1nc2nccc(-c3cccc(Cl)c3)n2n1 | – | inconclusive: 35.5 µM [inhibitor, partial curve] |
| CSc1ccc(NC(=O)Nc2ccccc2C(N)=O)cc1 | – | inconclusive: 25.1 µM [inhibitor, single point] |
| Fc1cccc(Oc2nc3ccccc3n3cccc23)c1 | – | inconclusive: 22.4 µM [inhibitor, partial curve] |
| CC1CCc2c(sc(/N=C/c3cccnc3)c2C(N)=O)C1 (stereo not drawn) | – | inconclusive: 25.1 µM [inhibitor, single point] |

| Structure (SMILES) | activity change, negative = inhibition | Potency |
| --- | --- | --- |
| O=C(/C=C/c1ccncc1)c1cc(Cl)ccc1O | – | inconclusive: 25.1 µM [inhibitor, partial curve] |
| COc1ccc(-c2[nH]ncc2CN2CCC(C(=O)N3CCOCC3)CC2)c(F)c1 | – | inconclusive: 0.178 µM [inhibitor, full curve, poor fit] |
| Cc1cc(C(=O)OCC(=O)Nc2cccc(S(=O)(=O)N(C)C)c2)c2ccccc2n1 | – | inconclusive: 39.8 µM [inhibitor, single point] |
| O=C(O)c1ccc(COc2ccccc2/C=C2\NC(=O)N(Cc3ccccc3)C2=O)cc1 | – | inconclusive: 28.2 µM [inhibitor, single point] |
| O=C(Nc1ccc(N2CCOCC2)c(S(=O)(=O)Nc2cc(Cl)ccc2Cl)c1)c1cccnc1 | inactive: -3.75% | – |
| COc1ccc(-c2[nH]c(-c3ccccc3)nc2SCC(=O)NCc2ccco2)cc1OC | – | inconclusive: 25.1 µM [inhibitor, partial curve] |
| COc1cc(OC)cc(C(=O)Oc2c(CN3CCOCC3)cc(Cl)c3cccnc23)c1 | inactive: -14.9% | – |
| COc1cc(C=O)ccc1OCc1ccc(Cl)nc1 | inactive: -6.62% | – |
| COc1cc(/C=C2\CCc3c2nc2ccccc2c3C(=O)O)cc(OC)c1OC | – | inconclusive: 28.2 µM [inhibitor, partial curve] |
| O=[N+]([O-])c1cc(Cl)cc2c1nc(NCCO)c1ccccc12 | inactive: 5.17% | – |
| COc1ccccc1/C=C/C1=NC(=C\C=C/c2ccccc2)/C(=O)O1 | inactive: 0.444% | – |
| O=C(O)COCc1nc2ccccc2s1 | inactive: 2.87% | – |
| COc1cccc(CNc2nc3nc(C)cc(C)n3n2)c1 | – | inconclusive: 25.1 µM [inhibitor, partial curve] |
| CCC(C)n1c(=N)c(C#N)cc2c(=O)n3ccccc3nc21 (stereo not drawn) | – | inconclusive: 8.91 µM [inhibitor, partial curve] |
| O=C(c1cccs1)N1CCCN(c2ncnc3scc(-c4ccccc4)c23)CC1 | inactive: -3.69% | – |
| CCOC(=O)CCn1c2nc(C)cc(C)c2c(=O)n1-c1ccccc1 | – | inconclusive: 31.6 µM [inhibitor, partial curve] |
| Cc1ccc2nc(N3CCN(Cc4ccc(F)cc4)C3=O)c(C)cc2c1 | – | inconclusive: 28.2 µM [inhibitor, single point] |
| Cc1nc2nc(SCC(=O)O)nn2c(C)c1Cc1c(F)cccc1Cl | inactive: -7.56% | – |
| CCOc1cccc(N2C(=O)CC(NCc3ccc(S(N)(=O)=O)cc3)C2=O)c1 (stereo not drawn) | inactive: 10.9% | – |
| Cc1ccc(/C=C/C(=O)Nn2cnnc2)cc1 | inactive: 2.74% | – |
| Cc1ccc(-c2cn3nc(C)c(C)nc3n2)cc1 | – | inconclusive: 22.4 µM [inhibitor, partial curve] |
| CCOc1ccc2nc(SC3CC(=O)N(c4ccc(OC)cc4)C3=O)sc2c1 (stereo not drawn) | inactive: 3.97% | – |
| CCC(=O)N1CCCc2cc(S(=O)(=O)N3CCN(c4ccccn4)CC3)ccc21 | – | inconclusive: 39.8 µM [inhibitor, single point] |
| Cc1oc(-c2cccs2)nc1CN1CC[C@@](O)(c2ccccc2)[C@H]2CCCC[C@@H]21 | – | inconclusive: 28.2 µM [inhibitor, single point] |
